Measured values taken from the supplement of paper PMC11125491.
± gives the standard deviation of the averaged measurements. Growth of baker's yeast expressing single-residue variants of Pneumocystis jirovecii dihydrofolate reductase in 8.8 or 44 µM methotrexate (about 75% and 90% inhibition of the wild type). Selection coefficient per generation; 0 = like wild type, above 0 = less sensitive, below 0 = more sensitive or loss of function. No active / inactive call per row; the paper calls resistant above 0.220 (8.8 µM) or 0.243 (44 µM) together with a significance test. At 44 µM about 15% of codons end with one read or none, so the lowest values are floors (replicate rank correlation 0.74; 0.94 at 8.8 µM).

B1: UniProt A0EPZ9; numbered along this chain (parent)
chain: MDWQKSLTLIVALTLSRGIGLKNDLPWKLKSDMMFFSRVTSGLLVTRSTGQMNVVLMGRKTWESLPAHSRPLKNRINVVISRQEVLDLGGGAYHARSLDDALALLSQIYDSTSKIQLNRVFVIGGGELCKAAMEHSRLNRIIATVIHNEVDCDVFFPIDFRSSQSCLPWRKQDHSVLEAWVGSKVPQGKINENGFIYEFEMWIRDI

Variants of: B1
Experiment: selection coefficient against synonymous wild-type codons (log2 per generation); higher = faster growth than wild type
Conditions: with Saccharomyces cerevisiae carrying the variant on a plasmid
Procedure: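 Pooled growth of yeast carrying single-residue variants of P. jirovecii dihydrofolate reductase (own DFR1 gene intact), two passages at 30 °C, three cultures, sequenced before and after. Codons with under 15 starting reads are left out; codons of one change are averaged.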

| Variant | selection coefficient against synonymous wild-type codons (log2) (methotrexate 8.8 µM) | selection coefficient against synonymous wild-type codons (log2) (methotrexate 44 µM) |
| --- | --- | --- |
| Y197W | -0.0908 ± 0.056 | -0.185 ± 0.067 |
| Y197V | -0.212 ± 0.072 | -0.295 ± 0.16 |
| Y197D | -0.52 ± 0.046 | -0.336 ± 0.086 |
| L43Q | 0.157 ± 0.019 | 0.149 ± 0.034 |
| L43P | 0.23 ± 0.039 | 0.225 ± 0.056 |
| K30Q | 0.00977 ± 0.043 | 0.0225 ± 0.051 |
| Q51D | -0.0651 ± 0.043 | -0.035 ± 0.08 |
| G124D | -0.355 ± 0.078 | 0.16 ± 0.04 |
| G124T | -0.0426 ± 0.062 | 0.483 ± 0.068 |
| G124P | 0.242 ± 0.024 | 0.812 ± 0.044 |
| Q83W | -0.627 ± 0.11 | -0.268 ± 0.069 |
| Q83H | -0.122 ± 0.024 | -0.0714 ± 0.073 |
| K171A | -0.103 ± 0.064 | -0.119 ± 0.094 |
| G126M | 0.329 ± 0.028 | 0.458 ± 0.04 |
| Q116K | -0.00903 ± 0.027 | 0.0718 ± 0.016 |
| Q116W | -0.431 ± 0.098 | -0.33 ± 0.15 |
| G182T | -0.233 ± 0.092 | -0.326 ± 0.057 |
| D99A | -0.291 ± 0.068 | -0.254 ± 0.054 |
| R38Q | 0.107 ± 0.037 | 0.149 ± 0.071 |
| W27L | 0.16 ± 0.088 | 0.184 ± 0.088 |
| K73S | -0.0745 ± 0.074 | -0.0292 ± 0.098 |
| D159R | -0.0304 ± 0.049 | -0.178 ± 0.14 |
| D159E | -0.067 ± 0.038 | -0.0279 ± 0.056 |

| Variant | selection coefficient against synonymous wild-type codons (log2) (methotrexate 8.8 µM) | selection coefficient against synonymous wild-type codons (log2) (methotrexate 44 µM) |
| --- | --- | --- |
| D159M | -0.0716 ± 0.099 | -0.186 ± 0.054 |
| M34V | -0.0288 ± 0.042 | -0.0946 ± 0.055 |
| A67K | 0.0243 ± 0.071 | 0.035 ± 0.032 |
| A67E | 0.0794 ± 0.061 | 0.0266 ± 0.015 |
| C152W | 0.281 ± 0.067 | 0.314 ± 0.024 |
| C152N | 0.416 ± 0.07 | 0.411 ± 0.048 |
| K114D | 0.0276 ± 0.12 | 0.0125 ± 0.16 |
| I80G | -0.789 ± 0.075 | -0.285 ± 0.07 |
| I80R | -0.674 ± 0.067 | -0.186 ± 0.059 |
| R59K | 0.0965 ± 0.069 | 0.0157 ± 0.029 |
| R59H | -0.0956 ± 0.069 | -0.0218 ± 0.029 |
| R59E | 0.201 ± 0.043 | 0.312 ± 0.08 |
| G58Q | 0.259 ± 0.07 | 0.768 ± 0.054 |
| D153H | 0.145 ± 0.065 | 0.0166 ± 0.15 |
| V39N | 0.289 ± 0.017 | 0.41 ± 0.085 |
| V39W | -0.0628 ± 0.028 | -0.0841 ± 0.12 |
| H94V | -0.629 ± 0.13 | -0.231 ± 0.11 |
| E200N | 0.346 ± 0.062 | 0.338 ± 0.063 |
| E200Q | 0.242 ± 0.047 | 0.222 ± 0.089 |
| W62P | -0.465 ± 0.096 | -0.217 ± 0.089 |
| R82D | 0.263 ± 0.065 | 0.35 ± 0.058 |
| L88W | -0.61 ± 0.1 | -0.194 ± 0.041 |
| L88A | -0.386 ± 0.097 | -0.235 ± 0.065 |

| Variant | selection coefficient against synonymous wild-type codons (log2) (methotrexate 8.8 µM) | selection coefficient against synonymous wild-type codons (log2) (methotrexate 44 µM) |
| --- | --- | --- |
| I203A | 0.0908 ± 0.068 | 0.0558 ± 0.061 |
| S113V | -0.358 ± 0.078 | -0.435 ± 0.086 |
| V154A | 0.123 ± 0.043 | -0.0501 ± 0.11 |
| V154F | -0.0541 ± 0.069 | -0.077 ± 0.089 |
| V154G | 0.381 ± 0.019 | 0.536 ± 0.02 |
| V154D | 0.276 ± 0.032 | 0.442 ± 0.055 |
| V154P | -0.464 ± 0.16 | -0.188 ± 0.067 |
| H147I | -0.252 ± 0.055 | -0.307 ± 0.022 |
| H147G | -0.0491 ± 0.055 | -0.219 ± 0.23 |
| V45S | 0.139 ± 0.061 | 0.157 ± 0.12 |
| V45Y | -0.161 ± 0.22 | -0.143 ± 0.083 |
| V45I | -0.0378 ± 0.14 | 0.0414 ± 0.21 |
| R204E | -0.187 ± 0.058 | -0.139 ± 0.077 |
| R204H | -0.0629 ± 0.032 | -0.0503 ± 0.098 |
| L7R | -0.411 ± 0.093 | -0.28 ± 0.13 |
| L138C | 0.188 ± 0.041 | 0.2 ± 0.048 |
| L138A | 0.297 ± 0.024 | 0.424 ± 0.033 |
| L167D | -0.0418 ± 0.041 | -0.00945 ± 0.05 |
| H135T | -0.0913 ± 0.06 | -0.133 ± 0.14 |
| H135F | -0.257 ± 0.011 | -0.175 ± 0.033 |
| H135V | -0.377 ± 0.054 | 0.0467 ± 0.46 |
| N191S | 0.0493 ± 0.16 | 0.0855 ± 0.31 |
| T46M | -0.274 ± 0.056 | -0.379 ± 0.035 |

| Variant | selection coefficient against synonymous wild-type codons (log2) (methotrexate 8.8 µM) | selection coefficient against synonymous wild-type codons (log2) (methotrexate 44 µM) |
| --- | --- | --- |
| T46E | 0.2 ± 0.053 | 0.212 ± 0.044 |
| L21N | 0.0196 ± 0.19 | 0.0464 ± 0.053 |
| L21G | 0.314 ± 0.02 | 0.321 ± 0.037 |
| I19K | 0.45 ± 0.009 | 0.6 ± 0.0098 |
| I19R | -0.176 ± 0.06 | 0.0436 ± 0.24 |
| I19C | 0.481 ± 0.03 | 0.508 ± 0.027 |
| S136A | -0.00258 ± 0.02 | -0.139 ± 0.16 |
| G188S | -0.107 ± 0.066 | -0.0842 ± 0.089 |
| S64V | -0.499 ± 0.17 | -0.311 ± 0.045 |
| E84V | -0.367 ± 0.1 | -0.258 ± 0.096 |
| G91F | -0.143 ± 0.092 | -0.117 ± 0.19 |
| A92R | -0.792 ± 0.047 | -0.296 ± 0.14 |
| N74G | 0.0285 ± 0.055 | 0.101 ± 0.12 |
| N74E | -0.296 ± 0.046 | -0.143 ± 0.18 |
| Y93V | -0.321 ± 0.077 | -0.279 ± 0.11 |
| D24S | -0.0429 ± 0.084 | 0.0616 ± 0.054 |
| L102R | -0.64 ± 0.15 | -0.251 ± 0.091 |
| L102K | -0.602 ± 0.099 | -0.229 ± 0.039 |
| V176I | -0.0127 ± 0.063 | -0.00837 ± 0.3 |
| G90L | -0.354 ± 0.12 | -0.173 ± 0.17 |
| D173G | -0.163 ± 0.057 | -0.258 ± 0.14 |
| N53T | 0.00322 ± 0.03 | 0.0104 ± 0.13 |
| N53S | -0.00453 ± 0.028 | -0.0241 ± 0.059 |

| Variant | selection coefficient against synonymous wild-type codons (log2) (methotrexate 8.8 µM) | selection coefficient against synonymous wild-type codons (log2) (methotrexate 44 µM) |
| --- | --- | --- |
| W169S | -0.446 ± 0.084 | -0.327 ± 0.14 |
| L72N | -0.166 ± 0.18 | 0.069 ± 0.17 |
| L72D | -0.446 ± 0.12 | -0.284 ± 0.029 |
| L72H | -0.0509 ± 0.066 | 0.0715 ± 0.21 |
| L72W | 0.0671 ± 0.07 | 0.0548 ± 0.099 |
| L104T | -0.399 ± 0.0046 | -0.234 ± 0.12 |
| S106D | 0.0724 ± 0.039 | 0.0673 ± 0.1 |
| A101H | -0.592 ± 0.034 | -0.0902 ± 0.044 |
| A101G | -0.381 ± 0.075 | -0.334 ± 0.13 |
| G89I | -0.638 ± 0.039 | -0.29 ± 0.061 |
| G89H | -0.144 ± 0.028 | -0.0435 ± 0.021 |
| T14K | 0.0534 ± 0.034 | 0.156 ± 0.03 |
| Q4I | -0.449 ± 0.068 | -0.243 ± 0.0095 |
| S162K | -0.017 ± 0.045 | -0.111 ± 0.043 |
| S162T | -0.0473 ± 0.035 | -0.0883 ± 0.074 |
| S162Q | -0.0688 ± 0.026 | -0.169 ± 0.18 |
| S162W | -0.103 ± 0.051 | -0.122 ± 0.078 |
| I196L | -0.0327 ± 0.038 | 0.0582 ± 0.12 |
| I196G | 0.0251 ± 0.06 | -0.014 ± 0.11 |
| I196Q | 0.103 ± 0.036 | 0.0239 ± 0.084 |
| P26M | -0.325 ± 0.14 | -0.15 ± 0.11 |
| Q187R | -0.0735 ± 0.045 | -0.102 ± 0.083 |
| Q187E | 0.00546 ± 0.028 | 0.0177 ± 0.051 |
